{
  "source": "PubChem BioAssay AID1963576",
  "about": "(National Center for Advancing Translational Sciences (NCATS), 2024)",
  "note": "About 60 (0.1%) of roughly 46,000 compounds were called active. Inconclusive results (about 3%) are left out. Calls come from the whole dose curve; as a rule, active = well fitted inhibition curve with a large enough effect; inconclusive = small, poorly fitted or top-dose-only effect; inactive = no such curve, though single readings can be large or run the other way. The list shows a part of the results.",
  "data": [
    {"experiment": "Primary qHTS assay for Inhibitors of ovarian cancer metastasis using an organotypic tumor microenvironment (TME) model; note: nearly all actives have a fitted effect of over 65% in size;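 for activity change, negative = inhibition: plate controls were DMSO wells for no effect and tomatine positive control wells for full effect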.", "settings": "SKOV3ip1-GFP adhesion/invasion on 3D omental model, fluorescence; series mostly up to 45.8 µM; activity change, negative = inhibition: at the top concentration", "procedure,_shortened": "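A 3D layer of primary human omental fibroblasts, mesothelial cells, fibronectin and collagen I, grown 48 hr, received SKOV3ip1-GFP cells in serum-free medium plus compounds at 0.36-46 umol/L. After 2 hr RT and 16 hr 37 C, fixed adherent GFP cells were counted; normalized to DMSO and tomatine.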", "values": [
      {"smiles": "CCc1nnc(SCc2nc(-c3cccc(Cl)c3)oc2C)c2cc3sc(C)cc3n12", "activity change, negative = inhibition": "inactive: 7.35%"},
      {"smiles": "Cc1ccccc1C(=O)NCc1nc(-c2ccc(Cl)cc2)no1", "activity change, negative = inhibition": "inactive: 6.84%"},
      {"smiles": "Cc1ccc(C)c(Cn2c(=O)cc(C(F)(F)F)c3c(C)nn(C)c32)c1", "activity change, negative = inhibition": "inactive: 2.3%"},
      {"smiles": "CN(C)c1ccc(CNC(=O)C2CCCN(S(=O)(=O)c3ccc4c(c3)CCCC(=O)N4)C2)cc1", "note": "(centres undefined)", "activity change, negative = inhibition": "inactive: 5.25%"},
      {"smiles": "COc1ccc(Cl)cc1NC(=O)CCn1c(=O)c2cccn2c2ccccc21", "outcome": "inactive"},
      {"smiles": "CCC(C(=O)Nc1ccc(C(C)C)cc1)n1nc(C)n2c(cc3cc(C)ccc32)c1=O", "note": "(centres undefined)", "outcome": "inactive"},
      {"smiles": "Cc1cccc(NC(=O)Cn2nnc(C(=O)NCc3cccs3)c2N)c1", "activity change, negative = inhibition": "inactive: -6.46%"},
      {"smiles": "NC(=O)c1c(NC(=O)c2cc(-c3ccc(F)cc3)on2)sc2c1CCCC2", "activity change, negative = inhibition": "inactive: 1.77%"},
      {"smiles": "Cc1oc(-c2ccc(Cl)cc2)nc1CS(=O)CC(=O)NCCc1ccccc1", "note": "(centres undefined)", "activity change, negative = inhibition": "inactive: -17.6%"},
      {"smiles": "CCOc1ccc2oc(=O)cc(CN3CCN(Cc4ccc(C)cc4)CC3)c2c1", "activity change, negative = inhibition": "inactive: -4.2%"},
      {"smiles": "COc1ccc(N2C(=O)CSC23C(=O)N(Cc2cccc(C(F)(F)F)c2)c2ccccc23)cc1", "note": "(centres undefined)", "activity change, negative = inhibition": "inactive: -13.6%"},
      {"smiles": "Cc1ccc(Nc2c3c(nc4nc(-c5cccs5)nn24)CCCC3)cc1F", "activity change, negative = inhibition": "inactive: -5.77%"},
      {"smiles": "Cc1cccc(Cn2c(=O)n(CCCC(=O)NCc3ccccc3Cl)c(=O)c3ccccc32)c1", "activity change, negative = inhibition": "inactive: -0.153%"},
      {"smiles": "COc1ccccc1CNc1nc(-c2ccco2)nn1S(C)(=O)=O", "activity change, negative = inhibition": "inactive: 2.21%"},
      {"smiles": "COc1ccc(S(=O)(=O)NC(C)(C)C)cc1-c1nnc2c3ccccc3c(C)nn12", "activity change, negative = inhibition": "inactive: 8.03%"},
      {"smiles": "CCOC(=O)Cn1nc(C)c(NC(=O)COc2ccccc2)c1C", "activity change, negative = inhibition": "inactive: -10.4%"},
      {"smiles": "COc1ccccc1OCC(=O)N(Cc1cccs1)C1CCS(=O)(=O)C1", "note": "(centres undefined)", "activity change, negative = inhibition": "inactive: 7.84%"},
      {"smiles": "CCN1CCN(c2ncc3c(n2)CCN(CC(C)C)C3)CC1", "activity change, negative = inhibition": "inactive: 5.19%"},
      {"smiles": "CSc1ccc(NC(=O)C2CCN(c3ncccn3)CC2)cc1", "outcome": "inactive"},
      {"smiles": "COc1ccc(N(Cc2cccs2)C(=O)COc2cccc(C)c2C)cc1", "activity change, negative = inhibition": "inactive: 2.21%"},
      {"smiles": "Cc1cc(-c2ccc(C)c(S(=O)(=O)Nc3ccccn3)c2)on1", "outcome": "inactive"},
      {"smiles": "COc1cc(OC)c(NS(=O)(=O)c2c(C(=O)N3CCCCCC3)c(C)n(C)c2C)cc1Cl", "activity change, negative = inhibition": "inactive: 5.59%"},
      {"smiles": "COc1cc(NC(=O)CCn2c(=O)oc3ccccc32)cc(OC)c1OC", "activity change, negative = inhibition": "inactive: -3.53%"},
      {"smiles": "COC(=O)CC1Oc2ccc(F)cc2-n2cc(-c3ccc(C)cc3)nc21", "note": "(centres undefined)", "activity change, negative = inhibition": "inactive: -27.1%"},
      {"smiles": "Cc1ccc(CNc2nc3ccc(Cl)cc3n3nnnc23)cc1", "activity change, negative = inhibition": "inactive: -7.88%"},
      {"smiles": "CCOC(=O)N1CCc2c(sc(NCc3cccc(F)c3)c2C(=O)Nc2ccc(OC)cc2)C1", "activity change, negative = inhibition": "inactive: -7.1%"},
      {"smiles": "COc1ccc(-n2cc(-c3ccccc3)nc2SCC(=O)Nc2ccccc2C)cc1", "activity change, negative = inhibition": "inactive: 1.11%"},
      {"smiles": "COc1ccc(Br)cc1CNC(=O)c1ccc2nc(C(C)C)oc2c1", "outcome": "inactive"},
      {"smiles": "Cc1cccc(CC(=O)N2CC(=O)Nc3ccc(C)cc3C2c2ccc(F)cc2)c1", "note": "(centres undefined)", "activity change, negative = inhibition": "inactive: -11.4%"},
      {"smiles": "CCOc1ccc(-n2ccnc2SCC(=O)Nc2cccc3ccccc23)cc1", "activity change, negative = inhibition": "inactive: -8.94%"},
      {"smiles": "O=[N+]([O-])c1cc(-c2nc(-c3ccccc3)no2)ccc1NCc1cccnc1", "activity change, negative = inhibition": "inactive: -19.1%"},
      {"smiles": "Cc1ccc(NC(=O)CN2C(=O)C(c3ccc(C(C)(C)C)cc3)=NC2(C)C)cc1", "outcome": "inactive"},
      {"smiles": "CCCN(CCC)C(=O)CSc1c2c(nc3ccc(Cl)cc13)CCCC2", "outcome": "inactive"},
      {"smiles": "COc1ccccc1Cc1nc2ccccc2nc1SCC(=O)Nc1ccc2c(c1)OCO2", "activity change, negative = inhibition": "inactive: -4.28%"},
      {"smiles": "COc1ccccc1CNC(=O)CCCCn1c(=O)c2ccccc2n(CC(=O)Nc2c(C)cc(C)cc2C)c1=O", "activity change, negative = inhibition": "inactive: -20.4%"},
      {"smiles": "Brc1ccc(Nc2c3c(nc4nncn24)CCC3)cc1", "activity change, negative = inhibition": "inactive: 0.537%"},
      {"smiles": "Cc1ccc(C(=O)Nc2ccc(-c3nc4ccccc4o3)cc2)cc1Cl", "activity change, negative = inhibition": "inactive: 7.8%"},
      {"smiles": "Cc1ccc(C)c(NC(=O)C(Cc2ccccc2)n2cccc2)c1", "note": "(centres undefined)", "activity change, negative = inhibition": "inactive: 30.4%"},
      {"smiles": "COc1ccc(OC)c(NC(=O)Cn2c(=O)n(Cc3ccco3)c(=O)c3cc(OC)c(OC)cc32)c1", "outcome": "inactive"},
      {"smiles": "Cc1cc(C)cc(-n2c(SCC(=O)Nc3cccc(F)c3)nc3c([nH]c4ccccc43)c2=O)c1", "outcome": "inactive"},
      {"smiles": "COc1ccc(N2CCN(C(=O)COc3ccccc3C#N)CC2)cc1", "outcome": "inactive"},
      {"smiles": "CS(=O)(=O)N1CCc2c(-c3cnc(N)nc3)nc(N3CCOCC3)nc21", "activity change, negative = inhibition": "inactive: 8.29%"},
      {"smiles": "CCc1ccc(NC(=O)C2=C(C)C(=O)OC23CCCCC3)cc1", "activity change, negative = inhibition": "inactive: -12.9%"},
      {"smiles": "COc1ccc(OCC(=O)Nc2c(C(=O)N3CCN(c4ccccc4)CC3)oc3ccccc23)cc1", "activity change, negative = inhibition": "inactive: 7.17%"},
      {"smiles": "COc1ccc2c(c1)c1c(c(=O)n(Cc3ccccc3)c(=O)n1Cc1ccccc1Cl)n2C", "outcome": "inactive"},
      {"smiles": "COCCNc1nc2c(c(=O)n(Cc3cccc(Cl)c3)c(=O)n2C)n1C", "activity change, negative = inhibition": "inactive: -4.08%"},
      {"smiles": "Cc1ccc(NC(=O)C2CCC(CNS(=O)(=O)c3ccc4c(c3)CCCC(=O)N4)CC2)cc1F", "note": "(centres undefined)", "activity change, negative = inhibition": "inactive: 8.2%"},
      {"smiles": "CCOC(=O)c1cc(-c2ccccc2)n(CCC(=O)NCCc2cccc(C)c2)c1C", "activity change, negative = inhibition": "inactive: -6.6%"},
      {"smiles": "COC(=O)c1ccc(NC(=O)C(=O)NCC(c2cccnc2)N2CCN(c3ccccc3)CC2)cc1", "note": "(centres undefined)", "activity change, negative = inhibition": "inactive: 2.68%"},
      {"smiles": "CCCCNc1oc(-c2ccc(COc3ccccc3C)o2)nc1C#N", "activity change, negative = inhibition": "inactive: -48%"},
      {"smiles": "CC(=O)c1cccc(NC(=O)Cc2ccc(NC(=O)N3CCCCc4ccccc43)cc2)c1", "outcome": "inactive"},
      {"smiles": "COc1ccc(S(=O)(=O)N(CC(=O)NCCSc2ccccc2)c2ccc(C)cc2)cc1", "outcome": "inactive"},
      {"smiles": "O=C(O)c1cccc(NC(=O)c2cc3cc(Br)cc(Br)c3oc2=O)c1", "activity change, negative = inhibition": "inactive: -4.14%"},
      {"smiles": "O=C(NCc1ccc(F)cc1)c1cc2cccc3c2n1CCS3", "outcome": "inactive"},
      {"smiles": "CCCCN1CCCc2cc(CN(CCCN3CCOCC3)C(=O)Nc3ccc(CC)cc3)ccc21", "activity change, negative = inhibition": "inactive: 1.79%"},
      {"smiles": "CCOC(=O)c1c(-c2ccc(OC)c(OC)c2)csc1NC(=O)c1ccc(C)cc1", "activity change, negative = inhibition": "inactive: -23.8%"},
      {"smiles": "COc1ccc(-c2cc(C(=O)Nc3cc(C)nn3-c3ccccc3)no2)cc1OC", "activity change, negative = inhibition": "inactive: -1.85%"},
      {"smiles": "Cc1ccc(NC(=O)c2cnc3cc(C)ccn3c2=O)c(C)c1", "activity change, negative = inhibition": "inactive: -3.61%"},
      {"smiles": "CCCCSc1nc(-c2cccc(OC)c2)nc2c1Cc1c(CO)cnc(C)c1O2", "activity change, negative = inhibition": "inactive: -5.88%"},
      {"smiles": "O=S(=O)(NCc1ccc(F)cc1)c1ccc2[nH]c3c(c2c1)CCCC3", "activity change, negative = inhibition": "inactive: 9.05%"},
      {"smiles": "Cc1c(Cl)cccc1NC(=O)c1oc2ccc(S(=O)(=O)N3CCC4(CC3)OCCO4)cc2c1C", "activity change, negative = inhibition": "inactive: -0.227%"},
      {"smiles": "Cc1ccc(-c2cc(NC(=O)c3cccc(C)c3)on2)cc1", "activity change, negative = inhibition": "inactive: -15.7%"},
      {"smiles": "CCc1nonc1NC(=O)c1oc2cc(C)c(C)cc2c1C", "outcome": "inactive"},
      {"smiles": "CCC(=O)Nc1ccc(CC)cc1-c1nc2ccccc2n(CC(=O)c2ccc(OC)cc2)c1=O", "activity change, negative = inhibition": "inactive: 23.1%"}
    ]}
  ]
}
